Test results reported in the supplement of paper PMC10126150.
Sequences with one replicate were seen in a single cluster, so their values are uncertain.

Tested on: ATP
Assay: switch fluorescence ratio, 500 uM ATP over buffer (Cy3 cluster intensity, sum of 5 cycles each) (fold (ratio)); higher = stronger signal-on switching upon ATP binding; sequences stand for … in TCGTCGGCAGCGTCAGATGTGTATAAGAGACAGTTTTTTTTTTTTTTTTTTTTTTTTT…TC
Conditions: aptamer strand: ATP DNA aptamer (quencher-CACCTGGGGGAGTATTGCGGAGGAAGG + anchor), 100 nM annealed; ATP concentration: 500 uM; one replicate
Procedure, shortened: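 Values give the fluorescence ratio for each switch-domain sequence, averaged from per-cluster ratios of summed target-cycle to summed buffer-cycle Cy3 intensity. The Cy3-labelled switching-strand clusters sat on a modified Illumina MiSeq flow-cell, were annealed to 100 nM quencher-labelled ATP aptamer, and were imaged in selection buffer, then after 15 min with 500 uM ATP at 22 °C. Five cycles ran with NaOH stripping and re-annealing between them, and clusters outside 100-1000 RFU were excluded.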
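Note: ATP exposure 15 min at 22 °C before imaging.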

Sequence | switch fluorescence ratio
ACGTTGTGGG | 0.984
CAGTATAAAA | 0.998
ATGTTCTGGT | 0.942
CGTTTGCGGT | 0.992
AAGAGTTTTG | 0.971
GCTCATATGT | 0.986
ACTTATGTGT | 0.985
GACCCGTCTT | 1.09
GGGTGATCTA | 0.959
TGCTGGACAA | 0.98
ACTCGGAGAG | 1.02
CGCTTCGATC | 1.06
GGTTTATAGG | 0.973
AAGAGAGGTC | 1.07
TAAAGGCGTC | 1.04
CACCCAGAAC | 1.32
TAGAGGTGAA | 1.01
GGGGTTATA | 1.01
ACGAAAGTTC | 1.06
TGGATTGTGA | 1.01
CAATTCA | 0.963
GGTATGAAGC | 0.97
TCTAGCAGAG | 1.01

Sequence | switch fluorescence ratio
CAGACTACCT | 1.16
GGCTTCAGTC | 0.959
CTTTGACTGA | 0.989
GAGATACGCG | 1.02
GCAAGTTGCC | 0.968
TTCGTGCTTG | 0.955
ACATTGTTGA | 1
GCCCTGGACC | 1.01
AATCTTAGGC | 1.01
CACATATCCC | 1.04
TTTGACTCGT | 0.968
AGTCGTAAAA | 0.991
AAAGATCTT | 0.996
CAGACTATCC | 1.06
ATTTCGCTGC | 1.2
TAACCTTGGG | 1.03
CATAGTGGGA | 0.956
GATGTAGATG | 0.988
TGTCGATAGA | 1.03
GCAGTAGCCC | 1.08
GAACGAAGG | 0.992
TTCGCAGGCC | 1.3
TGAGTTGTAG | 0.98

Sequence | switch fluorescence ratio
GTTGAACAGA | 0.979
AAAGCCTAGG | 1.05
CATGAAACGG | 1.04
ATGAAATAT | 0.978
GGGATGCCGG | 0.984
AGGACGCGGA | 0.997
GTTATTTAT | 0.977
GCGTTAGGAT | 1.03
GATCGTTAAT | 1.03
CCATGATTTT | 1.03
ATTAGTGCAG | 1
ATTACCCCCG | 1.38
TAGGTAGGCC | 1.03
TGTCGACATG | 1
TTCCGAGCT | 2.44
AAAATACT | 1.43
TACAACTGTA | 1.01
AAGTTCGCGA | 1.02
GGGGTGATAA | 0.969
ACTTAGCAAT | 2.68
TCCGATAACG | 1.08
GCCGGCTGAC | 0.988
CTCTTAGGCT | 0.959

Sequence | switch fluorescence ratio
CCTGTTCTGG | 0.972
TTAAGTACCG | 1.09
GCGCAAGTCA | 1.03
AGGGCTGAGT | 1.03
AAGGAACGTA | 1.04
CAAGGGTGTT | 1.05
GAGACTGGAT | 1.03
GAGGATCGTG | 0.944
TTGAATTGTG | 0.997
TCCATCTAAG | 0.999
GAATCGGCCA | 0.982
GGTAATTGGA | 0.922
ATCCTAGAAT | 0.97
CCATATGCCT | 1
CGGTGCCTA | 0.974
ATTTTATATC | 1.02
TTGAGCAGAT | 1.1
CATTCAGCCA | 1.02
CTCTCGGCGG | 1.03
CCACCTGCAT | 4.84
TGCATGGATG | 1
AACATGCAGT | 1.06
GAAGGGTAGA | 0.986

Sequence | switch fluorescence ratio
TATACTTAGG | 1.06
CGGAATAGAG | 0.98
TAGGTTGCAC | 0.99
AGGTACTAAT | 1
GCTAGGTAAT | 1.06
ACTCACTTTC | 1.18
TATCTTTGGA | 0.99
CCGCGTCCTG | 1.17
GGCCGGCATC | 1.03
GCTATAGCC | 1
CCATGCGGGG | 1.07
CAACGTTTGG | 0.998
TTAGGAGGC | 1.03
GAAGTCGTCA | 1.01
CGTCACAAGC | 1.3
TATATTGCGA | 1.02
AGTTTTGCTG | 1
GGTGTACGTA | 0.916
CCAATCCAAG | 1.05
TTTACTTTGT | 0.975
TCTTGGCAGT | 1.1
CGGGCGCTTG | 0.998
CAACATTCTT | 0.981

Sequence | switch fluorescence ratio
TTTCCAATGG | 1.07
TTTCTTCGAT | 1.02
CAGTTGTAGC | 1.02
AATAGAAGTG | 1.02
TGCGCAGG | 1.01
ATAGCTAGAT | 0.997
CATTGGTGAC | 1.02
GCATCGTACA | 1.14
GTAGCAGGGT | 1.05
TGAGTCCCAG | 1.01
TGTTCACCT | 1.02
CTGGATTTGA | 0.981
AGGGGTTTAA | 1.01
AAATCATATC | 1.02
ACTGGGCATC | 1.06
AAGCTTTAAC | 1.05
AAGCACAACT | 1.15
GACCAAATG | 0.953
GTGATAGTCA | 1.04
GCGAAACGAG | 1.14
CTGTTAAGTA | 1
CTGAATCTAC | 1.15
CAAGCAAGT | 1.19

Sequence | switch fluorescence ratio
AAGTTGTGCC | 1.02
AAAAAGTTCG | 1.09
CCCCAGCTTT | 1.48
TCGGAGAAC | 1.06
CTTCGCAGGT | 2.88
GCTACCAGCC | 1.04
CGGTGAGGTT | 0.986
GTTCCATTGT | 1.02
AAGCTCTCGC | 0.996
CCTCGTTCCC | 1.82
GTCTGGGGTT | 0.983
ATTCACGGCA | 1.18
ACGAATGTA | 1.01
TTGTTGTAT | 0.972
TATAATCGTC | 0.989
GCTCTAACGG | 0.966
GCCTAGATGA | 0.956
ATAGACGTGC | 1.02
AACTTTTAGG | 1.02
TCAAGAAGC | 1.32
